Results reported in a collection of fitness landscapes (doi:10.1016/j.celrep.2020.107928).
In all, about 81,000 sequences were measured (“one-hybrid fitness for binding NBS DNA”: median about -0.1, highest 2% from about 0.36 on). This is one part of the list.

B1: Caulobacter ParB omega fusion; a variant is named by its letters at X, in order, B8GW30 (parent)
chain: MESVVVGEPGMSEGRRGLGRGLSALLGEVDAAPAQAPGEQLGGSREAPIEILQRNPDQPRRTFREEDLEDLSNSIREKGVLQPILVRPSPDTAGEYQIVAGERAWRAAQRAGLKTVPIMVRELDDLAVLEIGIIENVQRADLNVLEEALSYKVLMEKFERTQENIAQTIGKSXSHVANXMRLLXLPDEVQSYLVSGELTAXHARAIAAAADPVALAKQIIEGGLSVRETEALARKAPNLSAGKSKGGRPPRVKDTDTQALESDLSSVLGLDVSIDHRGSTGTLTITYATLEQLDDLCNRLTRGI

Variants of: B1
Assay: one-hybrid fitness for binding NBS DNA (the Noc-binding site; scaled: cognate 1, non-cognate 0); higher = stronger binding
Details: with NBS DNA site
Outline: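 On M9-minus-histidine containing 0.1 mM IPTG and 5 mM 3-AT, E. coli USO cells with a HIS3 reporter, site 19 bp from the promoter, grew 48 hours at 37°C to select Caulobacter ParB libraries randomised at four specificity codons. Plasmids from before and after were Illumina-sequenced, with three replicate libraries pooled and variants under 10 reads left out. Fitness is the log change in variant-to-wild-type read ratio, rescaled against cognate and non-cognate.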

one-hybrid fitness for binding NBS DNA, 0.584:
QTFR

one-hybrid fitness for binding NBS DNA, 0.239:
RRGQ

one-hybrid fitness for binding NBS DNA, 0.439:
QRNQ

one-hybrid fitness for binding NBS DNA, 0.532:
RIHT

one-hybrid fitness for binding NBS DNA, 0.26:
MSHC

one-hybrid fitness for binding NBS DNA, ≤ 0.2:
PCVG
KSYT
NNAD
RPTF
WRTG
PPWC
ALPQ
TTGH
EISG
FAVG
PHTD
CQFS
SHGD
DRQA
SNQG
SAPL
RVSY
NCIR
QLDA
TNVT
HTTI
KYPT
SNYE
FLQL
PRRF
MAHR
KESG
VTLV
ARSG
RMKD
VSYV
SISH
YRSG
SKRD
VHSP
GQAM
TCQV
RFPK
ENPV
VYCG
RVVH
WHFV
SPRE
TWRL
PTNE
MIMW
AVGG
VCIR
QGGM
ECAF
AQNS
HVSL
AGQC
NLTW
WYSD
NSEG
RNWS
NIDS
VGNN
IFQM
PTQY
KTNM
CRSR
PGQS
GMHE
NRHK
GLVM
RDNH
APNE
TATW
KYYR
HWQL
SVSW
EFEL
YFMC
WQDS
SGCF
RDDN
MRIG
MAPD
DEES
VTLW
CIWV
FKLA
QSAY
LGST
WCWS
QKIL
VNQA
VYGT
ITNG
ACDG
GHFS
THGG
VHAY
SDRG
GLDG
QATF
WLPE
GCMV
ICSE
CMVE
HHCR
SAQN
AGSV
AETT
CRNS
RWKN
ITSC
PIAK
CQST
RDLS
DCPE
NLSY
HYLG
LRRV
RQTA
HPWC
WAPC
GEVG
PHMS
HEMS
THKT
HWKT
FQIC
TDEN
YDSV
RDTG
KTWT
PTMP
YHYT
DQAA
VRIT
SGFG
GICR
DTGS
MNML
AYRA
ATGF
TMDG
NLVA
QMDI
MRNW

one-hybrid fitness for binding NBS DNA, 0.302:
RRQC

one-hybrid fitness for binding NBS DNA, 0.208:
TRKK

one-hybrid fitness for binding NBS DNA, 0.386:
QSCT

one-hybrid fitness for binding NBS DNA, 0.211:
SQTI

one-hybrid fitness for binding NBS DNA, 0.515:
RCAT
